The full ranking holds about 110,000 compounds; the median of “z-score” is about -0.1, and the highest 2% start at about 2. This is one part of the list. Calls of active or inactive are those of the source.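 Rule for the calls: active = z-score in the third read window above 3 or below -3; inactive = the rest.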
The molecules below were run against Metabotropic glutamate receptor 8 (Rattus norvegicus) (UniProt P70579) (assay: rat mGluR8 modulators via GIRK flux, primary screen, cell-based, thallium flux, HTS (AID 488969)). Settings: HEK293 rat mGluR8, GIRK (G protein-gated inwardly rectifying potassium channel) thallium flux, FluoZin2; at 10 µM; stronger effect = higher value; submaximal glutamate (EC20) added with thallium.
UniProt P70579, sequence (P70579 whole entry, looked up): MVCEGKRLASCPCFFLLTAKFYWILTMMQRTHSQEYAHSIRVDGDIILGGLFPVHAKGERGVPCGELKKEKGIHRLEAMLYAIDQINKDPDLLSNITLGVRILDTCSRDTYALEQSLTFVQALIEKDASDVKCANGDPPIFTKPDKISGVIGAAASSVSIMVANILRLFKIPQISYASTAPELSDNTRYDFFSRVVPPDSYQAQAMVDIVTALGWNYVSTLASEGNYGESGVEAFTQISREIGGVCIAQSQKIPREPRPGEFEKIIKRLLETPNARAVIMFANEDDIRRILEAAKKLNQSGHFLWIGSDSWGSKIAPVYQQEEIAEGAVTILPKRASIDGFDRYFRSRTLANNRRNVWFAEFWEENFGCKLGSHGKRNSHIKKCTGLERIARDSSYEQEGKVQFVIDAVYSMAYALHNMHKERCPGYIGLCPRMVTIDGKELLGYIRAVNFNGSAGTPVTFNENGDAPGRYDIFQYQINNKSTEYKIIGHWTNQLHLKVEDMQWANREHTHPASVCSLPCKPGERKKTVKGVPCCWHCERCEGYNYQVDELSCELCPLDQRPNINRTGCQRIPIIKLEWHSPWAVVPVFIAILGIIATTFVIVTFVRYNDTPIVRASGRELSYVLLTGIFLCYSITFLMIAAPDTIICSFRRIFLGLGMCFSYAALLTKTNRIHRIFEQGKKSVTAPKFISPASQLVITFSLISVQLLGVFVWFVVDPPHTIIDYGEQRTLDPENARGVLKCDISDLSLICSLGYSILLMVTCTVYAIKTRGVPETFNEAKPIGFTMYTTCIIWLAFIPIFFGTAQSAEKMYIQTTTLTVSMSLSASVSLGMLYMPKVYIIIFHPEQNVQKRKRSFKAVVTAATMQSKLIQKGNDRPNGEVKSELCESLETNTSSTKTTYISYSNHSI
`CN(C(=O)COc1cc(=O)n(C)c2ccccc12)c1ccc(Cl)cc1` was tested, and the z-score was 1.04. For `CCOC(=O)N1CCC(N(C(=O)Nc2ccc(Cl)c(Cl)c2)C(C)CC)CC1` (stereo unspecified), the z-score was -0.099. `CC(NC(=O)/C(C#N)=C/c1ccc(Cl)c([N+](=O)[O-])c1)c1ccccc1` (stereo unspecified) was tested, and the z-score was -0.278. With `O=C(OC1CCN(c2ncc(C(F)(F)F)cc2Cl)CC1)c1cccc(C(F)(F)F)c1` the z-score was 0.0627. `O=C(CSc1nnc(SCc2ccccc2)s1)N/N=C/C=C/c1ccco1` gave a z-score of -0.182. Work on `Cc1ccc2nc(N(CCN(C)C)C(=O)c3cc(Cl)sc3Cl)sc2c1` yielded a z-score of 0.124. With `COC(=O)c1ccccc1NC(=O)CSc1n[nH]c(C)n1` the z-score was -0.104. Work on `Oc1ccc(/C=N/Nc2cc(N3CCCC3)nc(N3CCCC3)n2)cc1O` yielded a z-score of -0.294. `CCCNC(=O)NCCc1c(C)[nH]c2ccccc12` gave a z-score of -0.0503. `COc1ccccc1C(=O)NCc1ccc(-c2nc3ccccc3s2)cc1` showed a z-score of -0.239. `COC(=O)c1cccc(NC(=O)Cc2ccc(OC)cc2)c1C` gave a z-score of 0.303. `OCCOCCNc1ncnc2c1cnn2-c1ccc(Cl)cc1` gave a z-score of 0.264. Work on `CCCNC(=O)C(CC)NS(=O)(=O)c1ccc(OC)cc1` (stereo unspecified) yielded a z-score of -0.865. In the case of `COc1ccc(Cl)cc1C(=O)CSc1nnnn1C1CCCC1`, the z-score is reported as active: 7.32. For `CCCCC(CC)CNC(=O)c1[nH]c(C)c(C(C)=O)c1C` (stereo unspecified), the z-score was 0.339. `Cc1ccccc1NC(=O)Cn1cnc2c(oc3ccccc32)c1=O` gave a z-score of -0.113. `Cc1cc(=O)oc(C)c1C(=O)OCC(=O)c1ccc2ccccc2c1` gave a z-score of -0.249. In the case of `CCCc1cc(=O)oc2cc(OCc3ccc(OC)cc3)c(Cl)cc12`, the z-score is reported as -0.084. `CCOC(=O)CSc1nnc(-c2cccs2)n1-c1ccccc1` was tested, and the z-score was -0.939. `CC(C)C1Cc2c(sc3c2c(=O)n(Cc2ccccc2)c2nncn32)CO1` (stereo unspecified) was tested, and the z-score was active: -3.44. Molecule `CSCC[C@H](NC(=O)Nc1cccc(C(F)(F)F)c1)C(=O)O` has a z-score of -0.23. `CC1CCC/C(=C(\C#N)c2nc(-c3cc4ccccc4oc3=O)cs2)C1` (stereo unspecified) gave a z-score of 0.525. For `Cc1ccc2[nH]c(=O)c(CN(CCCO)S(=O)(=O)c3c(C)ccc4nsnc34)cc2c1`, the z-score was 0.0145. `CC(C)(C)N(C=C(Cl)Cl)C(=O)NC1CCCCC1` was tested, and the z-score was 1.18. Molecule `CCCOC(=O)CSc1nc(N)c(C#N)c(CC)c1C#N` has a z-score of 0.792. Work on `Cc1ccc(C(=O)OCCN2CCN(c3ncc(C(F)(F)F)cc3Cl)CC2)cc1` yielded a z-score of 0.0566. `Cc1ccc(-c2nc(CSCC(=O)Nc3cc(C)on3)c(C)o2)cc1` showed a z-score of -0.707. For `Cc1ccc(-c2noc(CSc3ccccc3)n2)cc1`, the z-score was 0.377. `CCC(=O)Oc1ccc(C(=O)Nc2c[nH]c(=O)[nH]c2=O)cc1` showed a z-score of -0.234. For `CC(C(=O)O)C1SC(=O)NC1=O` (stereo unspecified), the z-score was 0.297. Work on `O=S(=O)(NC1CCCCC1Oc1ccccc1)c1ccccc1` (stereo unspecified) yielded a z-score of -0.656.

Source: PubChem BioAssay AID488969 (Vanderbilt High Throughput Screening Facility, 2010)
